Laboratory results: PubChem BioAssay AID274 (DTP/NCI, 2004)
Toxic doses and inconclusive results are not listed. A number of entries come with more than one value. The list is limited to them. There may be further records. The records of an entry repeat one measurement (runs, samples, wells, individuals or studies).

System: BDF1 mice, Lewis lung carcinoma iv, survival T/C
Assay: NCI In Vivo Anticancer Drug Screen. Data for tumor model Lewis Lung Carcinoma (intravenous) in B6D2F1 (BDF1) mice
Settings: endpoint: median survival time, higher = longer survival
Description: The antitumor activity of compounds was measured in mice bearing transplantable tumors. Survival or tumor size were measured and the results are expressed as the measurement made in the treated group (T) divided by the measurement made in the vehicle treated control group (C). The tumor model used in this assay is Lewis Lung Carcinoma (intravenous) in B6D2F1 (BDF1) mice

For `CC(CN1CC(=O)NC(=O)C1)N1CC(=O)NC(=O)C1` (configuration not stated), the T/C (dose: 500.0 mg/kg/injection, schedule: Q04DX003 (ip), vehicle: Klucel (hydroxypropylcellulose) (HPC)) was 107 % of control and 198 % of control.
`N[C@@H](Cc1ccc(N(CCCl)CCCl)cc1)C(=O)O` was tested, and the T/C (dose: 7.0 mg/kg/injection, schedule: Q04DX003 (ip), vehicle: saline) was 113 % of control and 162 % of control.
`COc1cccc2c1C(=O)c1c(O)c3c(c(O)c1C2=O)C[C@@](O)(C(=O)CO)C[C@@H]3OC1CC(N)C(O)C(C)O1` (some centres not stated) was tested, and the T/C (dose: 16.0 mg/kg/injection, schedule: Q01DX001 (ip), vehicle: saline) was 107 % of control and 169 % of control.
For `CN(C)/N=N/c1nc[nH]c1C(N)=O`, the T/C (dose: 12.5 mg/kg/injection, schedule: Q01DX009 (ip), vehicle: Klucel (hydroxypropylcellulose) (HPC)) was 112 % of control and 153 % of control.
`CC(=O)C(O)N1C(=O)C=CC1=O` (configuration not stated) was tested, and the T/C (dose: 1.25 mg/kg/injection, schedule: Q01DX009 (ip), vehicle: saline) was 93 % of control and 168 % of control, the T/C (dose: 2.5 mg/kg/injection, schedule: Q01DX009 (ip), vehicle: saline) was 89 % of control and 177 % of control and the T/C (dose: 5.0 mg/kg/injection, schedule: Q01DX009 (ip), vehicle: saline) was 102 % of control and 167 % of control.
